# Measured values taken from the supplement of paper PMC8728848.
# Some of the results follow.
# B1: LFA (Limax flavus) (protein)
# chain: MSVLFLAASFLLLASFELVAAQGCPRQDPGDWIVIQRRLNADVNFYRGWADYKHGFGDLRCNFWLGNEKIHQLTSHGRYKLRVEFTFNNKSYFAEYSTFKILGEADKYKLQVGGYSGNAGDALTFHNGMAFSTNDRDNDADSIDCAKVYHGAWWYKTCHESNLNGKWGSKKYGEGLNWKAKTTFTATATSSLLKIKALK
# What was measured:
# Test in all cases: glycan array binding signal (z-score within array); higher = stronger binding
# Conditions in all cases: glycan notation: IUPAC condensed, linker removed
# [1] = target: GlcNAc(b1-3)Gal(b1-4)GlcNAc(b1-3)Gal(b1-4)GlcNAc(b1-3)Gal(b1-4)GlcNAc(b1-3)Gal(b1-4)GlcNAc(b1-2)[GlcNAc(b1-3)Gal(b1-4)GlcNAc(b1-3)Gal(b1-4)GlcNAc(b1-3)Gal(b1-4)GlcNAc(b1-3)Gal(b1-4)GlcNAc(b1-6)]Man(a1-6)[GlcNAc(b1-3)Gal(b1-4)GlcNAc(b1-3)Gal(b1-4)GlcNAc(b1-3)Gal(b1-4)GlcNAc(b1-3)Gal(b1-4)GlcNAc(b1-2)Man(a1-3)]Man(b1-4)GlcNAc(b1-4)[Fuc(a1-6)]GlcNAc
# In short: (§1)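 Glycan array data were curated from 3228 arrays in the Consortium for Functional Glycomics database and kept only where the protein sequence was available. Glycan names were converted to IUPAC-condensed notation, and columns mapping to the same glycan were averaged. The binding signal is a within-array Z-score, averaged across arrays of the same protein sequence at different concentrations or buffers and across linkers. Negative Z-scores can be read as non-binding.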
# [2] = target: GlcNAc(b1-3)Gal(b1-4)GlcNAc(b1-3)Gal(b1-4)GlcNAc(b1-3)GalNAc
# In short: as §1
# [3] = target: GlcNAc(b1-3)Gal(b1-4)GlcNAc(b1-3)GalNAc
# In short: as §1
# [4] = target: GlcNAc(b1-3)Gal(b1-4)GlcNAc(b1-3)[GlcNAc(b1-3)Gal(b1-4)GlcNAc(b1-3)]GalNAc
# In short: as §1
# [5] = target: GlcNAc(b1-3)Gal(b1-4)GlcNAc(b1-6)[Gal(b1-3)]GalNAc
# In short: as §1
# [6] = target: GlcNAc(b1-3)Gal(b1-4)GlcNAc(b1-6)[GlcNAc(b1-3)Gal(b1-3)]GalNAc
# In short: as §1
# [7] = target: GlcNAc(b1-3)Gal(b1-4)GlcNAc(b1-6)[GlcNAc(b1-3)]Gal(b1-4)GlcNAc
# In short: as §1
# GlcNAc(b1-3)GalNAc = target: GlcNAc(b1-3)GalNAc
# In short: as §1
# GlcNAc(b1-3)Man = target: GlcNAc(b1-3)Man
# In short: as §1
# [8] = target: GlcNAc(b1-3)[GlcNAc(b1-4)][GlcNAc(b1-6)]GlcNAc
# In short: as §1
# [9] = target: GlcNAc(b1-3)[GlcNAc(b1-6)]Gal(b1-4)GlcNAc
# In short: as §1
# [10] = target: GlcNAc(b1-3)[GlcNAc(b1-6)]GalNAc
# In short: as §1
# [11] = target: GlcNAc(b1-4)Gal(b1-4)GlcNAc
# In short: as §1
# GlcNAc(b1-4)GlcNAc = target: GlcNAc(b1-4)GlcNAc
# In short: as §1
# [12] = target: GlcNAc(b1-4)GlcNAc(b1-4)GlcNAc
# In short: as §1
# [13] = target: GlcNAc(b1-4)GlcNAc(b1-4)GlcNAc(b1-4)GlcNAc(b1-4)GlcNAc
# In short: as §1
# [14] = target: GlcNAc(b1-4)GlcNAc(b1-4)GlcNAc(b1-4)GlcNAc(b1-4)GlcNAc(b1-4)GlcNAc
# In short: as §1
# [15] = target: GlcNAc(b1-4)[GlcNAc(b1-6)]GalNAc
# In short: as §1
# [16] = target: GlcNAc(b1-6)Gal(b1-4)GlcNAc
# In short: as §1
# GlcNAc(b1-6)GalNAc = target: GlcNAc(b1-6)GalNAc
# In short: as §1
# [17] = target: GlcNAc6S(b1-3)Gal(b1-4)GlcNAc
# In short: as §1
# Kdn(a2-3)Gal(b1-3)GalNAc = target: Kdn(a2-3)Gal(b1-3)GalNAc
# In short: as §1
# Kdn(a2-3)Gal(b1-3)GlcNAc = target: Kdn(a2-3)Gal(b1-3)GlcNAc
# In short: as §1
# Kdn(a2-3)Gal(b1-4)Glc = target: Kdn(a2-3)Gal(b1-4)Glc
# In short: as §1
# Kdn(a2-3)Gal(b1-4)GlcNAc = target: Kdn(a2-3)Gal(b1-4)GlcNAc
# In short: as §1
# [18] = target: Kdn(a2-3)Gal(b1-4)[Fuc(a1-3)]GlcNAc
# In short: as §1
# Kdn(a2-6)Gal(b1-4)GlcNAc = target: Kdn(a2-6)Gal(b1-4)GlcNAc
# In short: as §1
# [19] = target: Man(a1-2)Man(a1-2)Man(a1-3)Man
# In short: as §1
# [20] = target: Man(a1-2)Man(a1-2)Man(a1-6)[Man(a1-3)]Man
# In short: as §1
# Man(a1-2)Man(a1-3)Man = target: Man(a1-2)Man(a1-3)Man
# In short: as §1
# [21] = target: Man(a1-2)Man(a1-3)[Man(a1-2)Man(a1-6)]Man
# In short: as §1
# [22] = target: Man(a1-2)Man(a1-3)[Man(a1-2)Man(a1-6)]Man(a1-6)[Man(a1-2)Man(a1-2)Man(a1-3)]Man
# In short: as §1
# [23] = target: Man(a1-2)Man(a1-3)[Man(a1-2)Man(a1-6)]Man(a1-6)[Man(a1-2)Man(a1-2)Man(a1-3)]Man(b1-4)GlcNAc(b1-4)GlcNAc
# In short: as §1
# [24] = target: Man(a1-2)Man(a1-3)[Man(a1-6)]Man(a1-6)[Man(a1-2)Man(a1-3)]Man(b1-4)GlcNAc(b1-4)GlcNAc
# In short: as §1
# [25] = target: Man(a1-2)Man(a1-6)[Man(a1-3)]Man(a1-6)[Man(a1-2)Man(a1-2)Man(a1-3)]Man
# In short: as §1
# [26] = target: Man(a1-2)Man(a1-6)[Man(a1-3)]Man(a1-6)[Man(a1-2)Man(a1-2)Man(a1-3)]Man(b1-4)GlcNAc(b1-4)GlcNAc
# In short: as §1
# Man(a1-3)[Man(a1-6)]Man = target: Man(a1-3)[Man(a1-6)]Man
# In short: as §1
# [27] = target: Man(a1-3)[Man(a1-6)]Man(a1-6)[Man(a1-2)Man(a1-3)]Man(b1-4)GlcNAc(b1-4)GlcNAc
# In short: as §1
# [28] = target: Man(a1-3)[Man(a1-6)]Man(a1-6)[Man(a1-3)]Man
# In short: as §1
# [29] = target: Man(a1-3)[Man(a1-6)]Man(a1-6)[Man(a1-3)]Man(b1-4)GlcNAc(b1-4)GlcNAc
# In short: as §1
# [30] = target: Man(a1-3)[Man(a1-6)]Man(b1-4)GlcNAc(b1-4)GlcNAc
# In short: as §1
# [31] = target: Man(a1-3)[Man(a1-6)]Man(b1-4)GlcNAc(b1-4)[Fuc(a1-6)]GlcNAc
# In short: as §1
# Man(a1-6)Man = target: Man(a1-6)Man
# In short: as §1
# Man(b1-4)GlcNAc = target: Man(b1-4)GlcNAc
# In short: as §1
# MurNAc(b1-4)GlcNAc = target: MurNAc(b1-4)GlcNAc
# In short: as §1
binder,measurement,setting,value
B1,glycan array binding signal (z-score),[1],1.75
same,glycan array binding signal (z-score),[2],-0.094
same,glycan array binding signal (z-score),[3],-0.213
same,glycan array binding signal (z-score),[4],-0.336
same,glycan array binding signal (z-score),[5],-0.288
same,glycan array binding signal (z-score),[6],-0.285
same,glycan array binding signal (z-score),[7],-0.245
same,glycan array binding signal (z-score),GlcNAc(b1-3)GalNAc,0.047
same,glycan array binding signal (z-score),GlcNAc(b1-3)Man,-0.321
same,glycan array binding signal (z-score),[8],-0.405
same,glycan array binding signal (z-score),[9],-0.31
same,glycan array binding signal (z-score),[10],-0.297
same,glycan array binding signal (z-score),[11],-0.422
same,glycan array binding signal (z-score),GlcNAc(b1-4)GlcNAc,-0.267
same,glycan array binding signal (z-score),[12],-0.226
same,glycan array binding signal (z-score),[13],2.87
same,glycan array binding signal (z-score),[14],5.81
same,glycan array binding signal (z-score),[15],-0.317
same,glycan array binding signal (z-score),[16],-0.34
same,glycan array binding signal (z-score),GlcNAc(b1-6)GalNAc,-0.268
same,glycan array binding signal (z-score),[17],-0.265
same,glycan array binding signal (z-score),Kdn(a2-3)Gal(b1-3)GalNAc,-0.121
same,glycan array binding signal (z-score),Kdn(a2-3)Gal(b1-3)GlcNAc,-0.168
same,glycan array binding signal (z-score),Kdn(a2-3)Gal(b1-4)Glc,-0.303
same,glycan array binding signal (z-score),Kdn(a2-3)Gal(b1-4)GlcNAc,-0.189
same,glycan array binding signal (z-score),[18],-0.292
same,glycan array binding signal (z-score),Kdn(a2-6)Gal(b1-4)GlcNAc,-0.324
same,glycan array binding signal (z-score),[19],-0.233
same,glycan array binding signal (z-score),[20],-0.079
same,glycan array binding signal (z-score),Man(a1-2)Man(a1-3)Man,-0.005
same,glycan array binding signal (z-score),[21],-0.037
same,glycan array binding signal (z-score),[22],-0.12
same,glycan array binding signal (z-score),[23],1.15
same,glycan array binding signal (z-score),[24],-0.068
same,glycan array binding signal (z-score),[25],-0.248
same,glycan array binding signal (z-score),[26],-0.19
same,glycan array binding signal (z-score),Man(a1-3)[Man(a1-6)]Man,-0.208
same,glycan array binding signal (z-score),[27],3.26
same,glycan array binding signal (z-score),[28],-0.265
same,glycan array binding signal (z-score),[29],-0.266
same,glycan array binding signal (z-score),[30],0.126
same,glycan array binding signal (z-score),[31],0.24
same,glycan array binding signal (z-score),Man(a1-6)Man,-0.18
same,glycan array binding signal (z-score),Man(b1-4)GlcNAc,0.075
same,glycan array binding signal (z-score),MurNAc(b1-4)GlcNAc,-0.363
